Test results from PubChem BioAssay AID588591 (National Center for Advancing Translational Sciences (NCATS), 2011).
Several values for one entry are separate records, joined by “and”; a condition that tells them apart may be missing. Equal values may be shown once. About 4,700 (1.2%) of roughly 390,000 compounds were called active. The shares of active, inactive and inconclusive entries below differ from those in the screen. The call rests on the fitted dose curve; in most records, active means well fitted inhibition curve with a large enough effect; inconclusive means small, poorly fitted or top-dose-only effect, or another doubt; inactive means no such curve, though single readings can be large or run the other way. Potencies of inconclusive entries are doubtful fits and often do not repeat.

Biological target: DNA polymerase eta (Homo sapiens) (UniProt Q9Y253)
Assay: qHTS for Inhibitors of Polymerase Eta
Conditions: recombinant Pol eta, fluorescent DNA replication assay; series mostly up to 114 µM; activity change, negative = inhibition: at the top concentration
Outline: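 Fluorescent replication assay: 50 nM final substrate added after a 15 min room-temperature compound preincubation with 10 nM enzyme. Signal taken at 0 min and again at 10 min.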
On the % scale 0 is the no-effect control and ±100 the full control effect; potency means the concentration at half of the fitted maximal effect; tags describe the fitted curve by direction and shape.

Sequence of UniProt Q9Y253 (Q9Y253 whole entry, looked up): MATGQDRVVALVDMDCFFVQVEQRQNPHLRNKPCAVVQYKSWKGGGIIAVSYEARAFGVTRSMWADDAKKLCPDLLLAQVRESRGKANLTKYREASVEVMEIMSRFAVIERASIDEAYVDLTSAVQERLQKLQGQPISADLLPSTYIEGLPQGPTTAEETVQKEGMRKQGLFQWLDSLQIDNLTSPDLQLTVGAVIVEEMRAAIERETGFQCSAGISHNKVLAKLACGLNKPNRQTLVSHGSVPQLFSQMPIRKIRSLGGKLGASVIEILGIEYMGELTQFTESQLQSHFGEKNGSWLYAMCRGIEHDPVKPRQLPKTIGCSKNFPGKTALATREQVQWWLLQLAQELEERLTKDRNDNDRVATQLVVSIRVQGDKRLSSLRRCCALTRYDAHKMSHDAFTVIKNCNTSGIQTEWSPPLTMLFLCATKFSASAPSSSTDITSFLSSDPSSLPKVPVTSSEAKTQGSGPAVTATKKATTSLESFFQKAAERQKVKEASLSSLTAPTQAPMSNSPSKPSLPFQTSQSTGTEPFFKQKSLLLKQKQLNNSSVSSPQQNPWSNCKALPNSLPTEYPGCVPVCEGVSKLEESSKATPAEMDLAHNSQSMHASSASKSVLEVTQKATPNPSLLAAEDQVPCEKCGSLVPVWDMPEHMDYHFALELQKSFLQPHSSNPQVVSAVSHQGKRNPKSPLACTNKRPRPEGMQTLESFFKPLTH

| Structure (SMILES) | Potency | activity change, negative = inhibition |
| --- | --- | --- |
| O=c1[nH]c(=S)n(C2CC2)c(O)c1C=Nc1cccc(C(F)(F)F)c1 | inconclusive: 100 µM [inhibitor, single point] |  |
| CCCCn1c(O)c(/C=N/NC(=O)c2ccncc2)c(=O)[nH]c1=S | inconclusive: 56.2 µM [inhibitor, partial curve, poor fit] |  |
| O=C(Cc1ccccc1F)N1CCN(CC(=O)N2CCCC2)CC1 | inconclusive: 4.47 µM [inhibitor, full curve, poor fit] |  |
| CCN1CCN(Cc2ccc(C)cc2C)CC1 | inconclusive: 20 µM [inhibitor, partial curve, poor fit] |  |
| O=C(C1CCCN(c2nnc(-n3cccc3)s2)C1)N1CCC2(CC1)OCCO2 (stereo not drawn) | inconclusive: 35.5 µM [inhibitor, partial curve, poor fit] |  |
| COc1ccc(CNC(=O)Cn2c(=O)nc(-c3ccccc3F)c3cc(Cl)ccc32)cc1 | inconclusive: 89.1 µM [inhibitor, partial curve, poor fit] |  |
| O=C(c1cc2nc(-c3ccccc3)cc(-c3ccccc3)n2n1)N1CCC2(CC1)OCCO2 | inconclusive: 12.6 µM [inhibitor, partial curve] |  |
| C=C(C)C(Cc1c(OC)ccc(C(=O)/C=C/c2ccc(O)cc2)c1O)OO (stereo not drawn) | inconclusive: 50.1 µM [inhibitor, partial curve, poor fit] |  |
| C[C@@H]1O[C@@H](Oc2c(-c3ccc(O)c(O)c3)oc3cc(O)cc(O)c3c2=O)[C@H](O)[C@H](O)[C@H]1O | inconclusive: 39.8 µM [inhibitor, single point] and inconclusive: 100 µM [inhibitor, single point] |  |
| O=C1NC(=O)C(=Cc2ccccc2OCCOc2ccc([N+](=O)[O-])cc2)C(=O)N1 | inconclusive: 70.8 µM [inhibitor, partial curve, poor fit] |  |
| COc1ccc(/C=C2/C(=O)N(Cc3ccco3)C(=O)N(C(C)C)C2=O)cc1 | active: 4.47 µM |  |
| COc1ccc2c(c1O)[C@]13CCN(C)[C@H](C2)[C@@H]1CCC(=O)C3 | inconclusive: 89.1 µM [inhibitor, partial curve, poor fit] |  |
| CCOc1ccc(C(=O)Nc2cccc(C(=O)OCc3cc(=O)n4nc(C5CC5)sc4n3)c2)cc1 | inconclusive: 100 µM [inhibitor, partial curve, poor fit] |  |
| COc1cc2c(cc1OC)-c1c(OC)c(OC)cc3c1[C@H](C2)N(C)CC3 | inconclusive: 89.1 µM [inhibitor, single point] |  |
| CN1C(=O)C(=Cc2cn(CC#N)c3ccccc23)C(=O)N(C)C1=O | inconclusive: 25.1 µM [inhibitor, partial curve, poor fit] |  |
| C=C1C(=O)O[C@@H]2C[C@@H](C)[C@@H]3C=CC(=O)[C@@]3(C)[C@@H](OC(=O)CC(=O)O[C@H]3[C@@H]4C(=C)C(=O)O[C@@H]4C[C@@H](C)[C@@H]4C=CC(=O)[C@]43C)[C@H]12 | active: 7.94 µM |  |
| O=C1C(=O)c2ccccc2-c2ccccc21 | active: 2.51 µM |  |
| O=C(c1ccc(CS(=O)(=O)c2ccccc2)o1)N1CCC2(CC1)OCCO2 | active: 89.1 µM |  |
| O=C1NC(=S)NC(=O)C1=Cc1cccn1-c1ccc(O)cc1 | active: 3.55 µM |  |
| NCc1cc(=O)[nH]o1 | inconclusive: 89.1 µM [inhibitor, single point] |  |
| COc1cc2c(c(OC)c1)C(=O)OC(C)CCCC(=O)CCCCC2 (stereo not drawn) | inconclusive: 79.4 µM [inhibitor, partial curve, poor fit] |  |

| Structure (SMILES) | Potency | activity change, negative = inhibition |
| --- | --- | --- |
| CC1CCc2c(sc3nc(CSc4n[nH]c(N)n4)[nH]c(=O)c23)C1 (stereo not drawn) | inconclusive: 22.4 µM [inhibitor, full curve, poor fit] |  |
| O=Cc1cn(Cc2ccc(Br)cc2)c2ccccc12 |  | inactive: -9.9% |
| Cc1nc2c(=O)n(C)c(=O)nc-2n(C)n1 | active: 0.794 µM |  |
| CC(C)C(C)(NC(=O)c1cccn(Cc2ccc3c(c2)OC(F)(F)O3)c1=O)C(N)=O (stereo not drawn) |  | inactive: -0.413% |
| C#CCOCCOCCOCCNc1nc(N2CCN(C(=O)CCCCCCCCCCNC(=O)[C@H]([C@@H](C)CC)n3cc(CCCCN=C(N)N)nn3)CC2)nc(N2CCN(C(=O)CCCCCCCCCCNC(=O)[C@H](CO)n3cc(CCCCCN)nn3)CC2)n1 | active: 79.4 µM |  |
| Cc1ccc(-n2c(/C=C\c3ccc(F)c(F)c3)nc3ccccc3c2=O)c(C)c1 |  | inactive: -17.3% |
| Cc1cc(Cc2c(O)[nH]c(=S)[nH]c2=O)ccc1OC(C)C |  | inactive: -11.8% |
| N#CC(C#N)=Cc1ccc(C=C(C#N)C#N)cc1 | active: 44.7 µM |  |
| CCc1ccccc1Nc1nn2c(=O)c3ccc(C(=O)Nc4cc(C)cc(C)c4)cc3nc2s1 | inconclusive: 89.1 µM [inhibitor, partial curve] |  |
| CN1C(=O)/C(=C/c2ccc(N3CCCCCC3)o2)C(=O)NC1=S | inconclusive: 17.8 µM [inhibitor, full curve, poor fit] |  |
| Cc1cc(C)cc(-n2c(C)cc(/C=C3\C(=O)NC(=O)N(C)C3=O)c2C)c1 | inconclusive: 31.6 µM [inhibitor, partial curve, poor fit] |  |
| O=C(NCCCN1CC1)Nc1cccc2ccccc12 | inconclusive: 79.4 µM [inhibitor, partial curve, poor fit] |  |
| CN1CCc2nc(SC(C(=O)O)c3ccccc3)c(C#N)c(-c3cccs3)c2C1 (stereo not drawn) | active: 31.6 µM |  |
| O=c1[nH]c(=O)n(CCC2=CCCCC2)c(O)c1/C=N/Nc1ccccc1 | inconclusive: 70.8 µM [inhibitor, partial curve] |  |
| O=C(Nc1ccc(Cl)c(Cl)c1)c1ccco1 |  | inactive: -25.2% |
| C=CCN1C(=O)NC(=O)/C(=C\c2ccc(-c3ccccc3[N+](=O)[O-])o2)C1=O | inconclusive: 89.1 µM [inhibitor, single point] |  |
| Cc1cc(C=C2C(=O)NC(=S)NC2=O)c(C)n1-c1ccc2c(c1)OCO2 | active: 20 µM |  |
| COc1ccc(CN2CCN(C(=O)Cn3c(=O)oc4cc(Cl)ccc43)CC2)c(OC)c1OC | inconclusive: 3.98 µM [inhibitor, full curve, poor fit] |  |
| N#CCCn1cc(C(=O)Nc2ccccc2Br)c(-c2ccc3c(c2)OCCO3)n1 | inconclusive: 89.1 µM [inhibitor, partial curve, poor fit] |  |
| O=c1[nH]c(=O)n(Cc2ccccc2)c(O)c1/C=C1\C=Nc2ccccc21 | inconclusive: 79.4 µM [inhibitor, partial curve, poor fit] |  |
| O=C(Cc1ccccc1)OCc1ccccc1 |  | inactive: -10.4% |

| Structure (SMILES) | Potency | activity change, negative = inhibition |
| --- | --- | --- |
| Cn1ncnc2c(=O)n(C)c(=O)nc1-2 | active: 0.708 µM |  |
| CN(C)C1(c2nnnn2CCOC(=O)Nc2ccc(Cl)cc2)CCCCC1 | inconclusive: 79.4 µM [inhibitor, partial curve, poor fit] |  |
| O=C1NC(=O)N(CCc2ccc(F)cc2)C(=O)/C1=C/c1ccco1 | active: 20 µM |  |
| CC(=O)C1C2c3ccccc3OC1(C)N=c1s/c(=C/c3cn(C)nc3C)c(=O)n12 (stereo not drawn) | inconclusive: 20 µM [inhibitor, partial curve, poor fit] |  |
| CC1(C)OC(c2ccccc2)=C/C(=C/C=C2C(=O)NC(=S)NC2=O)O1 | inconclusive: 56.2 µM [inhibitor, partial curve, poor fit] |  |
| N#CCCn1cc(C=C2C(=O)NC(=O)NC2=O)c(-c2ccccc2)n1 |  | inactive: -15.8% |
| C=C1C(=O)O[C@H]2[C@H]1[C@H](OC(=O)CC(=O)O[C@@H]1C[C@@H](C)[C@@H]3C=CC(=O)[C@@]3(C)[C@H]3OC(=O)C(=C)[C@H]13)C[C@@H](C)[C@H]1C=CC(=O)[C@]12C | active: 20 µM |  |
| O=C(c1ccc(Cl)cc1)C1CCCN(Cc2ccc3c(c2)OCCO3)C1 (stereo not drawn) | inconclusive: 100 µM [inhibitor, single point] |  |
| COc1ccc(N=Cc2c(O)n(-c3ccc(C)cc3)c(=O)[nH]c2=O)cc1 |  | inactive: -0.192% |
| CN(N=O)c1cc(O)ccc1O | active: 1.41 µM |  |
| COc1ccc(N2C(=O)NC(=O)/C(=C/c3ccc([N+](=O)[O-])s3)C2=O)cc1 | active: 8.91 µM |  |
| O=C(O)CC1OCC=C2CN3CCC45C6=CC(=O)C(=O)C([N+](=O)[O-])=C6NC4C1C2CC35 (stereo not drawn) | active: 5.01 µM |  |
| CCn1c(O)c(C=Nc2ccc(S(N)(=O)=O)cc2)c(=O)n(CC)c1=S | inconclusive: 50.1 µM [inhibitor, partial curve, poor fit] |  |
| O=C1NC(=O)C(=Cc2cn(CCOc3ccc4c(c3)OCO4)c3ccccc23)C(=O)N1 | inconclusive: 17.8 µM [inhibitor, single point] |  |
| C[n+]1c2ccccc2nc2ccc(NCCO)cc21 | active: 39.8 µM |  |
| COC(=O)C1=C(c2ccccc2OCc2ccccc2)C[C@@H]2CC[C@H]1N2C(=O)NCc1ccc(Br)cc1 | inconclusive: 89.1 µM [inhibitor, partial curve, poor fit] |  |
| Cc1nc2ccccc2c(=O)n1-c1ccncc1 | inconclusive: 89.1 µM [inhibitor, partial curve, poor fit] |  |
| COc1ccc(N2C(=O)/C(=C/c3ccc(C)o3)C(=O)NC2=S)cc1 | active: 12.6 µM |  |
| Cc1cc(/C=C2\C(=O)NC(=O)N(c3ccc(F)cc3)C2=O)c(C)n1-c1ccc(C(=O)O)cc1 | inconclusive: 79.4 µM [inhibitor, partial curve] |  |
| Cc1cc(/C=C2\C(=O)NC(=O)N(Cc3ccco3)C2=O)c(C)n1-c1ccc(O)cc1 | active: 20 µM |  |
| COc1ccc(C2SCC(=O)Nc3c2c(C)nn3-c2ccccc2)cc1 (stereo not drawn) | inconclusive: 89.1 µM [inhibitor, partial curve, poor fit] |  |
